The values below are quoted from earlier work in US20140235576A1, “PYRROLIDINE-2-CARBOXYLIC ACID DERIVATIVES AS IGLUR ANTAGONISTS” (Kobenhavns Universitet, priority 2013, published 2014).

For orientation: Ki means the dissociation constant of the complex between target and ligand, obtained from inhibition or displacement.

What all share (details): cloned homomeric subtype; values taken from reference 49; cited from earlier work
In one data set the target is T1, GluK3 (Rattus norvegicus, UniProt P42264).
T1 construct: expressed in transfected cells
T1 sequence (P42264 32-919): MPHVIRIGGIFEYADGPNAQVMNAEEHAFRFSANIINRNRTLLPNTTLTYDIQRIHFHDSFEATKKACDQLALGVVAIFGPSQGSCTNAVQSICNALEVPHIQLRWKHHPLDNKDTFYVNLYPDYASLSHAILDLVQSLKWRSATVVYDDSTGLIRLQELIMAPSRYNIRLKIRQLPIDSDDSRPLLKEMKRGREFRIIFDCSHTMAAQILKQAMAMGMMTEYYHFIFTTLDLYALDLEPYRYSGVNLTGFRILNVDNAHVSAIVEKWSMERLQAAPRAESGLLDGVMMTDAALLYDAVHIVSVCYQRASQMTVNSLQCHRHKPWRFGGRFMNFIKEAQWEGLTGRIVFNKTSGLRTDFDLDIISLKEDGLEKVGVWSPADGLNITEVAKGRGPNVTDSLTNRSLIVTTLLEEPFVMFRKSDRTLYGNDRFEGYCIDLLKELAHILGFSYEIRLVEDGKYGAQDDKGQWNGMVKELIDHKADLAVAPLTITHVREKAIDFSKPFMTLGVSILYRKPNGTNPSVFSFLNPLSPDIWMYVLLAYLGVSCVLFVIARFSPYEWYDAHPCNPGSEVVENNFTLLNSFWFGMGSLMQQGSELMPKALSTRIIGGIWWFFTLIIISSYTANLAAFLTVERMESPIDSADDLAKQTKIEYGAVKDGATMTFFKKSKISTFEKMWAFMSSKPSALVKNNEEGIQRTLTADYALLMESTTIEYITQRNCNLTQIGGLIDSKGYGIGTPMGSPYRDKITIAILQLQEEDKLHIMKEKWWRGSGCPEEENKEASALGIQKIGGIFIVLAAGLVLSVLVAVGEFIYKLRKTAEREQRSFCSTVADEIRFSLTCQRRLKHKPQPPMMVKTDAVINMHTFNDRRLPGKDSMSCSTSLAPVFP

Another data set has as its target GluK1 (UniProt P22756).
For another data set, the target named is GluK2 (UniProt P42260).

Where only a bound is given, the exact number is not on record here.

`O=C(O)c1cccc([C@H]2CCN[C@@H]2C(=O)O)c1` [Analog 1]: the Ki at GluK3 was 8.1 µM; on GluK1 it was 4.3 µM; on GluK2, above 100 µM.
